# Source: the supplement of paper PMC11417369
# ± gives the standard deviation of the averaged measurements. The list shows a part of the results.
# Tested on: PfAP2-I AP2 domain 3 (GST-tagged)
# Assay: gcPBM binding intensity (ln(normalized median fluorescence intensity)); higher = stronger DNA binding
# Outline: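 Alexa488 anti-GST antibody, scanned at 488 nm, detected GST-tagged P. falciparum DNA-binding domains that had been expressed in E. coli and incubated for 1 h on an Agilent 4 × 180k array. The array carried primer-extended double-stranded 36-bp intergenic genomic probes and negative controls. Binding intensity is the highest Masliner-normalised natural-log median intensity across replicate spots of either orientation of each probe.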
row,Sequence,gcPBM binding intensity (ln)
1,AATATTATGTATAACCGTACATTATATATATAATAA [XGTACX_site1594],7.46 ± 0.46
2,ATTGTGTTAATGAAATGTACATTTTCTCTACGTTAA [XGTACX_site1322],7.82 ± 0.69
3,TCCTACATATTATAGTGTACATTTTCATGTTCATAT [XGTACX_site4308],7.92 ± 0.63
4,AAGTATTATATATTTTGTACATATATAAAACCACAA [XGTACX_site5508],7.75 ± 0.39
5,TTAAACTTGTTTTGGATGCACTATATAATTCATTTT [GTGCAC_site9549],9.45 ± 0.15
6,ATTAAAATAATTTAATTTCTTAGACACAATTTGTAA [GTGCAC_negctrl_site331],7.33 ± 0.31
7,GTGTAAAGGTATTATTGTATTATTCAAAATAAAAAA [CACACA_negctrl_site637],7.93 ± 0.33
8,TATTTATATTTATATACACACATACATATTTATATT [CACACA_site6535],7.68 ± 0.58
9,AAACAAAAAATTTAAAGTACAAAAATTATGATTGTT [XGTACX_site465],7.58 ± 0.39
10,AAAAAATTAATATTGACACACATTTTTAAGAATAAT [CACACA_site239],7.58 ± 0.48
11,AATATGTCTATATTTTTTATATGGAAATATTATAAA [GTGCAC_negctrl_site700],7.43 ± 0.35
12,CAAAAGGATAGGCACACACACACACCCATATATATA [CACACA_site2199],8.36 ± 0.67
13,TTTTTTTTTTTTTTTTTTTTTTTATCTATTATTTAT [XGTACX_negctrl_site496],8.05 ± 0.79
14,AATACTATTATTATTGCACACTTATTATCCCTCGGA [CACACA_site4262],10.6 ± 0.38
15,TATCCATTTCTTTATGTGCACATTAAATATATTTGT,10.2 ± 0.4
16,TATAAAAATATTTCTACACACATTAATATATATATA [CACACA_site1150],8.97 ± 0.042
17,AATATATAGAGAGATATGCACACTGTATGAATGCAC [CACACA_site2677],10.7 ± 0.54
18,TATATTAATAATAAGTGTACATATATATATATTTTT [XGTACX_site288],7.84 ± 0.47
19,AATGAGAAATATAATTGTACATATATTTATTTTCAT [XGTACX_site3669],7.63 ± 0.35
20,ATTTGTAAAAAATTCATACACACGTCTTATTTTTAA [CACACA_site1390],7.59 ± 0.66
21,TATTTTTTCTTTCATTGTACTTTTTTTTTGTTTTGT [XGTACX_site4081],7.75 ± 0.68
22,ACCCAGTGTATTCATAGTACACGCTCATATATTATC [XGTACX_site423],8.11 ± 0.54

row,Sequence,gcPBM binding intensity (ln)
1,AGGTTTATAAAAAAAAAAAAAAAAAAAAAAAAAAAA [GTGCAC_negctrl_site113],8.21 ± 0.79
2,AATATTTAAAACATATGTACTGAAAAACAATTGGAC [XGTACX_site6360],8.12 ± 0.57
3,CACAAAGGTCTGAAATTTTAGGGGTGCCTGGGACTA [CACACA_negctrl_site681],7.88 ± 0.36
4,AACAAGTTGCATGGTGCACACATGTATATATATCTA [CACACA_site2548],10.6 ± 0.21
5,TACAATTTTACTCATAAACACACATATATATGTTAT [CACACA_site9031],7.82 ± 0.46
6,AAAATGTATGTAGTCTGTACAAATACTCTATAAATA [XGTACX_site6475],7.67 ± 0.47
7,TATTTTTTATGATTAACACACACACTAATAAAAAAA [CACACA_site9370],8.21 ± 0.42
8,TATATATATATATATAGTACGCACACATAGTTGCAA [XGTACX_site5875],9.27 ± 0.52
9,ATTCTTACTAATATCGCACACACATATGTAGACGGG [CACACA_site88],8.98 ± 0.39
10,ATTTTTTTATTTTTGTGTACTTATAAGAATATTAAT [XGTACX_site4850],8.15 ± 0.38
11,AATGAATATATTTATTGTACATATATGAATATTGCA [XGTACX_site8689],7.89 ± 0.15
12,AAAAAAAAAAAAAAAAGTACAAAAAGGAGAAAGATA [XGTACX_site7862],8.56 ± 0.38
13,TATGTTCCTTTTTGTTGTACTGAAAAATTATGTTCA [XGTACX_site3981],8.03 ± 0.23
14,ATAATATAAATTAATTTACACACTAATAAATATATA [CACACA_site9259],7.8 ± 0.45
15,ATTTTAAATTTATCTGTGCACAGTATTATATAAGCA [GTGCAC_site9806],9.95 ± 0.2
16,TATATATATATATGTGCACACCAATTGTATGTAATA [CACACA_site3888],10
17,TCATAAAAGATTAAGTGTACATGTGCTACTCTTATA [XGTACX_site6255],7.54 ± 0.47
18,AATATAAAATCAAGAAATTAAAAAAAAACAGAAAAC [CACACA_negctrl_site1004],8.07 ± 0.69
19,ACAAGATAATAGAGAAGTACTAATAAACATACACAA [XGTACX_site6617],7.88 ± 0.64
20,AAACCAAAAATAACACGTACAAAAATAAAAAGTATA [XGTACX_site4261],7.97 ± 0.34
21,AAAACATATTTTAAAAGTACTTGAAAAAAAATTTTC [XGTACX_site3940],7.57 ± 0.3
22,ATTATGCACGGACACACACACACACCCCTAAAAAAT [CACACA_site5426],10.4 ± 0.49

row,Sequence,gcPBM binding intensity (ln)
1,TGTTAACCACAAAAATAAAATAAAATAAAAATAATA [XGTACX_negctrl_site535],7.38 ± 0.8
2,TTTCCCATAGGAAAAACACACATATATTATAGATAA [CACACA_site7019],7.41 ± 0.74
3,TATGCTATTATATATGTACACACCAATTTATTTATA [CACACA_site3918],8.12 ± 0.42
4,TGATAAATATTATGTTGTACTTTCTGCCCTTCACAT [XGTACX_site5168],8.16 ± 0.5
5,GAAAAAAAAAGTTAAGCACACACATGAATAAATAAT [CACACA_site8179],8.43 ± 0.29
6,TTTTGATGCTTTAAATGTACAAGGGTTCTTATGAAA [XGTACX_site831],7.88 ± 0.38
7,GAGAGAGAAATATGCACACATAAGGGAAATAAATAA [CACACA_site1153],8.94 ± 0.071
8,AAAAAAAAAAAATAGAAAAAAAAATAAAATAAAAAA [CACACA_negctrl_site562],7.5 ± 0.38
9,TGTATATAATTTATATGTACATATATTTTATTTTGT [XGTACX_site1905],7.71 ± 0.37
10,AATATATAAATTGACACACACATATATACCTATATA [CACACA_site4803],7.88 ± 0.54
11,CACAATGGTTTATATACACACTGTTGCAAATTCTTC [CACACA_site5659],7.76 ± 0.71
12,AATATAAACACAAACACACACATATAGATTTATATA [CACACA_site6263],7.78 ± 0.35
13,TTATACCTATATTTAACACACATTTGATAAAGTGCC [CACACA_site6732],7.76 ± 0.61
14,TTGTAGGTAAATATGTGTACGCATTATTATTCTTAA [XGTACX_site216],7.99 ± 0.46
15,AAAAAATTTGTTTATTGTACAGAAAGAATTATTATA [XGTACX_site6549],7.64 ± 0.3
16,GAGAGAGAAATAAAAAGTACATACATATATATACAT [XGTACX_site2267],7.79 ± 0.26
17,TGGAGATTTTTAAAGACACACAGGTAAGAATAATAA [CACACA_site1582],7.92 ± 0.63
18,AAAAAAAACAGACACATACACACAAAAATGTTATAA [CACACA_site82],7.55 ± 0.47
19,ACCATTTTTATGTATAAACACACGTACCCGCACTAA [CACACA_site1604],8.53 ± 0.39
20,TACTAAGAAGTATTTACACACCAACAAGGCGAAAAA [CACACA_site2944],7.91 ± 0.85
21,ATATGTATAAAAATCCGTACATAAGTGTGCGTATAT [XGTACX_site4376],8.72 ± 0.26
22,ATAAATAATATGTAAACACACAAAAAATAAAAATGA [CACACA_site1178],7.83 ± 0.61

row,Sequence,gcPBM binding intensity (ln)
1,ATGTTTGAGCCTAAGGTGCATATAAAAATATATGTG [GTGCAC_site9690],11 ± 0.66
2,ATATATATTATATATGCATGCCAAATCTTTATAAAC [TGCATGCA_site1042],7.92 ± 0.69
3,ACATATATATATATATATATATATATATATAGATAG [CACACA_negctrl_site783],8.66 ± 0.31
4,ATAAAGAAATTACACACATGCAATGAAAAAAAAAAA [TGCATGCA_site406],8.23 ± 1
5,ACAAAAAAATATTTATGTACTTATTATATTTATAAT [XGTACX_site2059],7.71 ± 0.37
6,CTTTTTACTTAATACACACACACACTAAAAAAAAAA [CACACA_site6574],8.39 ± 0.2
7,AAAACTAAATGTTATTCGCACACGGAATTTATTTAA [CACACA_site9221],8.01 ± 0.47
8,ATAAAATGATGTATCTGTGTATGTTTATTTTGTTTT [XGTACX_negctrl_site367],7.46 ± 0.45
9,ATTATATACAAATAAAGTACATAAACAAATTCAGAA [XGTACX_site1187],7.77 ± 0.47
10,TATTTCAAACTGTTCTCACACACGAAATTAGAAATG [CACACA_site611],7.57 ± 0.66
11,ATTCCAGAAATATATTAACAAGGAAAATATAAAAAT [CACACA_negctrl_site343],7.64 ± 0.77
12,TTTTGAATATGGATCTTATATATATTAAATAAATAA [CACACA_negctrl_site344],7.24 ± 0.47
13,TTGAGCCTACAAAAGGGTACACATTCAATTTATTTT [XGTACX_site6570],7.62 ± 0.52
14,AAAAAAAAAAGAAATTGTACTTTTTGTTTAATAATT [XGTACX_site4681],7.42 ± 0.66
15,ATATTTTGTTATGAAACACACACATATATATATATA [CACACA_site9216],9.32 ± 0.59
16,AAACTGAAAAAAATATGTACATATTTATATCTTATA [XGTACX_site3011],7.66 ± 0.31
17,TAAAGCAACTGAAACACACAAATTTTTTTTTTTTTT [CACACA_site7499],7.79 ± 0.76
18,ATTGTATAAAAATGTACATGCAATAAATTTAGTTCT [TGCATGCA_site675],8.03 ± 0.58
19,GAAACGTTTTTTCAGTGTACATTTTACCGATTTGTA [XGTACX_site8249],7.88 ± 0.6
20,TAGTATAATATATATTGTACGTTTTAATTGTTTATA [XGTACX_site2731],7.61 ± 0.11
21,AAAAAAAAAAAACACACACACAAATACAAATACATA [CACACA_site415],7.82 ± 0.38
22,ATATAATGAAGTGAATGTACATATAAAATGTAAAAA [XGTACX_site8052],7.85 ± 0.76
